# PubChem BioAssay (NCATS)
# Where “and” joins values, the source holds several entries; their conditions need not be identical. Equal values may be shown once. Inconclusive results, whose numbers are uncertain, are shown with a selection of clear calls. For some assays here: Potencies of inconclusive entries are doubtful fits and often do not repeat. Calls of active or inactive are those of the source. Calls follow the shape of the dose curve; as a rule, active = well fitted curve in the direction sought with a large enough effect; inconclusive = small, poorly fitted or top-dose-only effect, or another doubt; inactive = no such curve, though single readings can be large; an effect the other way counts as inactive or inconclusive.
# Assays:
# [1] = qHTS of pediatric cancer cell lines to identify multiple opportunities for drug repurposing: Primary screen for OHS-50 cells (AID 1347103); also: nearly all actives have a fitted effect of over 40% in size; also: potency is read from the fitted curve at half-maximal effect
# In short: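 Cells (500-1,000/well) rested 5 h, then received compounds for 48 h; metabolically active cells were measured by CellTiter-Glo luminescence. Final concentrations spanned up to 46 µM (MIPE, 11-point) or 0.59 nM-46 µM (NPC, 8-point) in primary screens, 11-point in follow-ups.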
# [2] = qHTS of pediatric cancer cell lines to identify multiple opportunities for drug repurposing: Primary screen for Rh30 cells (AID 1347107); also: potency is read from the fitted curve at half-maximal effect; nearly all actives have a fitted effect of over 75% in size
# In short: (§1)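 Viability after 48 h compound treatment at 37C, 500-1,000 cells/well, read as ATP luminescence with CellTiter-Glo. Primary screens used 11-point (MIPE, 0.78 nM-46 µM) or 8-point (NPC, 0.59 nM-46 µM) final concentrations; follow-up screens used 11-point dilutions.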
# [3] = qHTS of pediatric cancer cell lines to identify multiple opportunities for drug repurposing: Primary screen for Rh41 cells (AID 1347108); also: nearly all actives have a fitted effect of over 70% in size; also: potency is read from the fitted curve at half-maximal effect
# In short: (§2)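 500-1,000 cells/well; 5 h pre-incubation 37 °C/5% CO2; compound pinned; 48 h; CellTiter-Glo, 15 min RT; luminescence. MIPE 11-pt from 0.78 nM, NPC 8-pt from 0.59 nM final. Bortezomib 2.3 µM final as positive control.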
# [4] = qHTS of pediatric cancer cell lines to identify multiple opportunities for drug repurposing: Primary screen for control Hh wild type fibroblast cells (AID 1347106); also: nearly all actives have a fitted effect of over 55% in size; also: potency is read from the fitted curve at half-maximal effect
# In short: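 Cells (500-1,000/well) in growth media were settled 5 h at 37 degrees C, then given compounds for 48 h. Viability was read as CellTiter-Glo luminescence. Primary runs used MIPE at 11 points (0.78 nM-46 µM) and NPC at 8 points (0.59 nM-46 µM); follow-ups used 11 points.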
# [5] = qHTS of pediatric cancer cell lines to identify multiple opportunities for drug repurposing: Primary screen for RD cells (AID 1347104); also: nearly all actives have a fitted effect of over 55% in size; also: potency is read from the fitted curve at half-maximal effect
# In short: as §2
# [6] = qHTS of pediatric cancer cell lines to identify multiple opportunities for drug repurposing: Primary screen for MG 63 (6-TG R) cells (AID 1347105); conditions: MG 63 (6-TG R) viability, CellTiter-Glo, 48 h; series mostly up to 46 µM; also: nearly all actives have a fitted effect of over 50% in size; also: potency is read from the fitted curve at half-maximal effect
# In short: as §2
# [7] = qHTS of pediatric cancer cell lines to identify multiple opportunities for drug repurposing: Confirmatory screen for NB1643 cells (AID 1347109); also: potency is read from the fitted curve at half-maximal effect; nearly all actives have a fitted effect of over 45% in size
# In short: as §1
# [8] = qHTS of pediatric cancer cell lines to identify multiple opportunities for drug repurposing: Confirmatory screen for A673 cells (AID 1347110); also: nearly all actives have a fitted effect of over 65% in size; also: potency is read from the fitted curve at half-maximal effect
# In short: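 A673 cells at 500-1,000 cells/well were dosed 5 h after plating, in dilution series up to 46 uM final; primary runs used 8 or 11 points and confirmatory runs used 11 points. Viability was read by CellTiter-Glo luminescence after 48 h, against DMSO and 2.3 uM bortezomib controls.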
# [9] = qHTS of pediatric cancer cell lines to identify multiple opportunities for drug repurposing: Confirmatory screen for SK-N-MC cells (AID 1347111);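 also: cells exposed to compound for 48 h before the readout; nearly all actives have a fitted effect of over 70% in size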
# In short: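 SK-N-MC cells at 500-1,000 cells/well in growth media were pre-incubated 5 h, then exposed to compounds at 11-point dilutions for 48 h at 37 degrees C, 5% CO2. Viability was read as CellTiter-Glo luminescence.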
# Tags tell the direction and shape of the fitted curve.
structure (smiles),measurement,setting,value
O=c1cc(-c2ccccc2)oc2cc(O)c(O)c(O)c12,Potency,[1],"inconclusive: 24.3 µM [cytotoxic, partial curve]"
same,Potency,[2],"inconclusive: 14.8 µM [cytotoxic, partial curve]"
same,Potency,[3],"inconclusive: 6.62 µM [cytotoxic, partial curve]"
O=C(O)[C@@H](c1ccc(OCc2ccc3ccccc3n2)cc1)C1CCCC1,Potency,[1],"inconclusive: 7.69 µM [cytotoxic, partial curve, poor fit]"
same,Potency,[3],"inconclusive: 14.8 µM [cytotoxic, partial curve, poor fit]"
NC(=O)c1ccc(-c2nc(-c3ccc4c(c3)OCCO4)c(-c3ccccn3)[nH]2)cc1,Potency,[1],"inconclusive: 24.3 µM [cytotoxic, partial curve, poor fit]"
same,Potency,[4],inactive
same,Potency,[3],"inconclusive: 20.9 µM [cytotoxic, partial curve]"
C=C[C@H]1CN2CC[C@H]1C[C@H]2[C@H](O)c1ccnc2ccc(OC)cc12,Potency,[1],"inconclusive: 19.5 µM [cytotoxic, single point]"
same,Potency,[3],inactive
O=C(Nc1ccc(F)c(C(F)(F)F)c1)Nc1nnc(-c2ccncc2)s1,Potency,[5],"inconclusive: 5.9 µM [cytotoxic, full curve]"
same,Potency,[6],"inconclusive: 18.7 µM [cytotoxic, partial curve, poor fit]"
same,Potency,[2],"inconclusive: 5.9 µM [cytotoxic, partial curve, poor fit]"
Oc1c(Br)cc(Br)c2cccnc12,Potency,[5],active: 23.7 µM
same,Potency,[6],active: 21.1 µM
same,Potency,[2],"inconclusive: 29.9 µM [cytotoxic, single point]"
same,Potency,[3],"inconclusive: 23.7 µM [cytotoxic, single point]"
same,Potency,[7],active: 26.1 µM
O=C1NC(=O)C(=Cc2ccc(-c3ccc(F)cc3O)o2)S1,Potency,[5],"inconclusive: 18.7 µM [cytotoxic, partial curve]"
same,Potency,[6],"inconclusive: 1.18 µM [cytotoxic, full curve]"
same,Potency,[3],inactive
O=C(C=CC=Cc1ccc2c(c1)OCO2)N1CCCCC1,Potency,[5],inactive
same,Potency,[6],inactive
Cc1cc(C(C)(C)C)c(O)c(C)c1CC1=NCCN1,Potency,[5],"inconclusive: 41.8 µM [cytotoxic, single point] and inconclusive: 23.7 µM [cytotoxic, partial curve, poor fit]"
same,Potency,[6],"inconclusive: 1.68 µM [cytotoxic, full curve, poor fit]"
CCc1ccc(OCc2ccccc2C(=O)Nc2ccc3nc(C)cc(N)c3c2)cc1,Potency,[5],active: 5.9 µM
same,Potency,[6],active: 7.43 µM
same,Potency,[4],active: 9.35 µM
same,Potency,[2],active: 11.8 µM
same,Potency,[8],active: 3.69 µM
CC[C@@]1(O)C[C@H](O[C@H]2C[C@H](N(C)C)[C@H](O[C@H]3C[C@H](O)[C@H](O[C@H]4CCC(=O)[C@H](C)O4)[C@H](C)O3)[C@H](C)O2)c2c(cc3c(c2O)C(=O)c2c(O)cccc2C3=O)[C@@H]1C(=O)OC,Potency,[1],inactive
same,Potency,[3],"inconclusive: 5.9 µM [cytotoxic, partial curve, poor fit]"
COCCCN1CCC(NC(=O)c2cc(Cl)c(N)c3c2OCC3)CC1,Potency,[5],"inconclusive: 41.8 µM [cytotoxic, single point]"
same,Potency,[6],"inconclusive: 0.372 µM [cytotoxic, single point]"
O=C(Nc1nc2ccccc2n1CCN1CCOCC1)c1cccc([N+](=O)[O-])c1,Potency,[5],"inconclusive: 20.9 µM [cytotoxic, partial curve]"
same,Potency,[6],"inconclusive: 23.5 µM [cytotoxic, single point]"
same,Potency,[4],inactive
same,Potency,[2],"inconclusive: 11.8 µM [cytotoxic, partial curve]"
same,Potency,[3],active: 18.7 µM
CCN(CC)CCNC(=O)c1cc(Cl)c(N)cc1OC,Potency,[1],inactive
same,Potency,[8],inactive
same,Potency,[9],inactive
C[C@H](NC(=O)C(=O)Nc1ccccc1C(C)(C)C)C(=O)N[C@@H](CC(=O)O)C(=O)COc1c(F)c(F)cc(F)c1F,Potency,[5],"inconclusive: 18.7 µM [cytotoxic, partial curve]"
same,Potency,[6],active: 14.8 µM
same,Potency,[3],"inconclusive: 4.69 µM [cytotoxic, partial curve]"
CC=CC[C@@H](C)C(=O)[C@H]1C(=O)N[C@@H](C(C)C)C(=O)N(C)CC(=O)N(C)[C@@H](CC(C)C)C(=O)N[C@@H](C(C)C)C(=O)N(C)[C@@H](CC(C)C)C(=O)N[C@@H](C)C(=O)N[C@H](C)C(=O)N(C)[C@@H](CC(C)C)C(=O)N(C)[C@@H](CC(C)C)C(=O)N(C)[C@@H](C(C)C)C(=O)N1C,Potency,[1],active: 24.3 µM
same,Potency,[3],"inconclusive: 11.8 µM [cytotoxic, partial curve]"
